Publication PMC4336329 (PLoS ONE, 2015)
Among all 310,000 compounds or so, about 14,000 (4.5%) showed an effect of 50% or more. Effects have a minus sign here. The list shows a part of the results.

target: human ether-à-go-go-related gene (hERG) potassium channel (human, UniProt Q12809); assay: primary screen, population patch clamp on CHO cells stably expressing hERG
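Also: peak tail current of the secondary pulse compared with the same well before compound.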

Chain of human ether-à-go-go-related gene (hERG) potassium channel (Q12809 whole entry, looked up): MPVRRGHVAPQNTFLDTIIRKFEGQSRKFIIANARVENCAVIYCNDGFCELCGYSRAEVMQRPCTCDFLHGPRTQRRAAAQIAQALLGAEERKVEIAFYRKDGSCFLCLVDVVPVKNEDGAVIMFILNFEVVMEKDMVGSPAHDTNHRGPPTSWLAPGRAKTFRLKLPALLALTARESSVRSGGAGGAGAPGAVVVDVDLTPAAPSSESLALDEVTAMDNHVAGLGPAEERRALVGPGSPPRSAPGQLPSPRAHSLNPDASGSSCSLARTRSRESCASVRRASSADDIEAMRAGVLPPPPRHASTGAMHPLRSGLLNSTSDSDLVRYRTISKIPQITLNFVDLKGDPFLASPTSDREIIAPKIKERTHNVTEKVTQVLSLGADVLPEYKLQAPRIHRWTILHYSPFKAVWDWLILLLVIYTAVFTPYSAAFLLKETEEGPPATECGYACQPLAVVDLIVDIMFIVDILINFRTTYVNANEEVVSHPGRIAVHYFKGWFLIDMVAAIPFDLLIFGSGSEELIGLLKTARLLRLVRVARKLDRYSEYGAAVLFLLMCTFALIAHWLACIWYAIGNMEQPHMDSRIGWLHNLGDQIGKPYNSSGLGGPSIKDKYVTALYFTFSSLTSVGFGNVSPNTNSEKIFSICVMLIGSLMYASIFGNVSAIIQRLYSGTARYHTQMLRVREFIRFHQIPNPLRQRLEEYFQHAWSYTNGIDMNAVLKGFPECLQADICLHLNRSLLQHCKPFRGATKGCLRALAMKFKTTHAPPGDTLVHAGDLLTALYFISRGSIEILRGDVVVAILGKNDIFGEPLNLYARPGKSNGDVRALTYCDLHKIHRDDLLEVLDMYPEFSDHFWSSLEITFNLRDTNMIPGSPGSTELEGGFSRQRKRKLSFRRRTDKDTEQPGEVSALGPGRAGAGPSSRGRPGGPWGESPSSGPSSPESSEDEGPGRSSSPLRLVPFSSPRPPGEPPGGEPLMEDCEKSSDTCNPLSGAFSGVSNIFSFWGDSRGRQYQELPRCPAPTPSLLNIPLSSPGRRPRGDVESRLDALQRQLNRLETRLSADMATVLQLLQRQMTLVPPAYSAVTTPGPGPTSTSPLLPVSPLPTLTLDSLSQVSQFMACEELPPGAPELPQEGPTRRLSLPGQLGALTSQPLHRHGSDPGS

| Compound | hERG current change (%, negative = inhibition) at 10uM |
| --- | --- |
| COc1ccc(S(=O)(=O)N2CCN(C(=S)NC3CCCCC3)CC2)cc1 | 8.69% |
| CC(=O)N[C@H](Cc1c[nH]c2ccccc12)C(=O)O | 9.29% |
| Cc1nc(NCCc2ccccc2)c2nnn(Cc3ccccc3)c2n1 | 20.7% |
| CC(Nc1nc(-c2ccc(F)cc2)cs1)c1nc2cc(Cl)c(N3CCCCC3)cc2n1CCCO (centres unmarked) | 7.15% |
| OCCCNc1nc(-c2ccc(Br)cc2)nnc1-c1ccc(Cl)cc1 | -52.3% |
| COc1ccc(OC)c(/C=N/N2CCN(c3ccc(Cl)cc3)CC2)c1 | 8.58% |
| CC1SCC(=O)N(CC(=O)Nc2ccc3c(c2)OCCO3)C1=O (centres unmarked) | -0.177% |
| CCOc1ccc(C(C)C)cc1S(=O)(=O)Nc1ccc(Cl)cn1 | 13.6% |
| CC1COC(Cn2c3ccccc3c3ccccc32)O1 (centres unmarked) | 8.06% |
| COc1ccc(CCC(C)NC(=O)CCc2ccccc2)c(OC)c1 (centres unmarked) | -26.8% |
| CC(CCC(=O)O)C1CC[C@@]2(C)C3C(=O)CC4C(C)(C)C(O)CC[C@]4(C)C3C(=O)C[C@]12C (some centres unmarked) | 20.6% |
| CS(=O)(=O)N1CCc2cc(C(=O)Nc3cccc([N+](=O)[O-])c3)ccc21 | 13.6% |
| COc1cc(NC(=O)c2ccc(Cl)cc2)c(OC)cc1NC(=O)CN1CCOCC1 | -21.4% |
| COc1ccc(OC)c(-n2c(-c3cccc(C)c3)n[nH]c2=S)c1 | 10.8% |
| Cc1nn(-c2ccccc2)c2c1C(c1cccs1)C(C#N)=C(N)O2 (centres unmarked) | 10.3% |
| COc1cc(NC(=O)c2cc(C)on2)cc(C(=O)Nc2cccc(C(F)(F)F)c2)c1 | -9.7% |
| CN1CC(c2ccc(Cl)c(Cl)c2)[C@@]2(COc3ccccc3C2=O)[C@@]12C(=O)Nc1ccccc12 (some centres unmarked) | 11% |
| Cn1c(N2CCN(C(=O)NC34CC5CC(CC(C5)C3)C4)CC2)nc2ccccc21 | 23.2% |
| COc1ccc(C(=O)OCC(=O)Nc2ncc([N+](=O)[O-])s2)cc1OC | 8.67% |
| Cc1cc(C)cc(OCc2nnc(SCC(=O)c3ccccc3)o2)c1 | 13.8% |
| O=C(Cn1cnnn1)NCCc1ccc(Cl)cc1Cl | -19.6% |
| Cc1cc(C)c(C(=O)/C=C/c2ccc(C(C)C)cc2)c(=O)[nH]1 | 10% |

| Compound | hERG current change (%, negative = inhibition) at 10uM |
| --- | --- |
| CCCOc1ccc(N2C(=O)CC(N(Cc3ccc(OC)cc3)C(=S)Nc3ccccc3)C2=O)cc1 (centres unmarked) | -6.22% |
| CSCCC(NC(=O)C1CCC(C)CC1)C(=O)Nc1ccc(NC(C)=O)cc1 (centres unmarked) | -6.02% |
| Cn1nnc2sc3c(c2c1=O)CCCC3 | 15.3% |
| CN1CCN(c2c(/C=N/O)c3ccccc3n2C)CC1 | -51.5% |
| O=C(c1cccs1)N1N=C(c2ccccc2)CC1c1ccc(O)cc1 (centres unmarked) | 14.7% |
| CCOc1ccc(NC(=O)CSc2nnnn2-c2ccc(C(N)=O)cc2)cc1 | 20.7% |
| CCS(=O)(=O)N1CCC(C(=O)Nc2ccc(C(C)=O)cc2)CC1 | 10.9% |
| CC1(C)OC2CC3C4CC(F)C5=CC(=O)C=CC5(C)C4(F)C(O)CC3(C)C2(C(=O)CO)O1 (centres unmarked) | -7.01% |
| CCOC(=O)[C@@H]1CCNC[C@@H]1c1ccccc1.Cl | 13% |
| CCN(CC)S(=O)(=O)c1ccc(C)c(NC(=O)CSc2nc3ccc(C)cc3[nH]2)c1 | -1.14% |
| Cc1ccc(N(CC2CO2)S(=O)(=O)c2ccc([N+](=O)[O-])cc2)cc1 (centres unmarked) | -69.3% |
| Cc1ccc(C(=O)Nc2ccccc2N2CCN(C(=O)C(C)C)CC2)cc1C | -18.7% |
| CCN(CC)C(=O)CSc1nc2ccccc2c(=O)n1CCC(=O)NCCc1ccc(OC)c(OC)c1 | -11.6% |
| COc1ccc(N2C(=O)c3ccccc3S2(=O)=O)cc1 | 0.492% |
| COc1ccc(OC)c(CNn2c(-c3ccccc3F)nc3ccccc3c2=O)c1 | -16.5% |
| O=C(NCC1CCCO1)c1ccc(Oc2ccc([N+](=O)[O-])cc2Cl)cc1 (centres unmarked) | -41.6% |
| Cc1oc(-c2cccc(Cl)c2)nc1CN1CCCC(C(=O)NCc2ccco2)C1 (centres unmarked) | -73% |
| C=CCNC(=O)COc1ccc(N(C)S(=O)(=O)c2ccc(NC(C)=O)cc2)cc1 | 6.61% |
| C[C@@]12CCC3[C@@](CCC4[C@@]3(C)CCC[C@@]4(C)C(=O)N3CCCCC3)(CC1=O)C2 (some centres unmarked) | 7.27% |
| Cc1cc(C)n(C(=O)COc2c(C)cccc2C)n1 | 11% |
| CC/C(=N\O)C(C)(C)/[N+]([O-])=C/c1ccc(Br)cc1 | 5.28% |
| COc1ccc(C(=O)NC2CCc3ccccc32)cc1OC1CCN(C(C)=O)CC1 (centres unmarked) | -0.012% |
